The target of the experiment is T1, human TRIM21 PRYSPRY domain with N-terminal 6xHis tag (human).
T1 construct: Expressed from pET28a in E. coli; also called hTRIM21
T1 chain: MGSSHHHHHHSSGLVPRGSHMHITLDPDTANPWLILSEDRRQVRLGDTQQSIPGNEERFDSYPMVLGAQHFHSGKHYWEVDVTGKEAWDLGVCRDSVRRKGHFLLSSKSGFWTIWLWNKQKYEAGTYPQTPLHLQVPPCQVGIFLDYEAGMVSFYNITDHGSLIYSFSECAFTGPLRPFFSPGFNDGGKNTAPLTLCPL
As to the kind of experiment: SPR, Ab captured on Protein L, hTRIM21 12.5-200 nM.

B1: 3D8VH-G1m/hT4VL-KT0.Avi D312H (antibody, human IgG1, kappa)
heavy: EVQLVESGGGLVQPGGSLRLSCAASGYTFTSYVMHWVRQAPGKGLEWVSAINPYNDGNYYADSVKGRFTISRDNSRKTLYLQMNSLRAEDTAVYYCARGAYKRGYAMDYWGQGTTVTVSSASTKGPSVFPLAPSSKSTSGGTAALGCLVKDYFPEPVTVSWNSGALTSGVHTFPAVLQSSGLYSLSSVVTVPSSSLGTQTYICNVNHKPSNTKVDKKV[human IgG1 Fc with D312H (EU numbers) omitted here]
light: [about 200 residues omitted here]GGGGSGLNDIFEAQKIEWHE
In the case of B1, the affinity, expressed as Kd, was 14.1 nM; the koff (commonly a measure of how fast the partners let go of each other) stood at 0.0389 s⁻¹; the kon (commonly the rate constant with which the complex forms) came out at 2.75e+06 M⁻¹ s⁻¹.

B2: 3D8VH-G1m/hT4VL-KT0.Avi I253L.D312H (antibody, human IgG1, kappa)
heavy: EVQLVESGGGLVQPGGSLRLSCAASGYTFTSYVMHWVRQAPGKGLEWVSAINPYNDGNYYADSVKGRFTISRDNSRKTLYLQMNSLRAEDTAVYYCARGAYKRGYAMDYWGQGTTVTVSSASTKGPSVFPLAPSSKSTSGGTAALGCLVKDYFPEPVTVSWNSGALTSGVHTFPAVLQSSGLYSLSSVVTVPSSSLGTQTYICNVNHKPSNTKVDKKV[human IgG1 Fc with I253L D312H (EU numbers) omitted here]
light: [about 200 residues omitted here]GGGGSGLNDIFEAQKIEWHE
On to B2, for which binding was put at a Kd of 0.421 nM, the koff is 0.000839 s⁻¹ and the kon is 1.99e+06 M⁻¹ s⁻¹.

B3: 3D8VH-G1m/hT4VL-KT0.Avi I253L.T437D (antibody, human IgG1, kappa)
heavy: EVQLVESGGGLVQPGGSLRLSCAASGYTFTSYVMHWVRQAPGKGLEWVSAINPYNDGNYYADSVKGRFTISRDNSRKTLYLQMNSLRAEDTAVYYCARGAYKRGYAMDYWGQGTTVTVSSASTKGPSVFPLAPSSKSTSGGTAALGCLVKDYFPEPVTVSWNSGALTSGVHTFPAVLQSSGLYSLSSVVTVPSSSLGTQTYICNVNHKPSNTKVDKKV[human IgG1 Fc with I253L T437D (EU numbers) omitted here]
light: [about 200 residues omitted here]GGGGSGLNDIFEAQKIEWHE
Consider B3, for which the Kd (commonly a measure of binding affinity in units of concentration) was found to be 0.45 nM, the koff is 0.000886 s⁻¹ and the kon is 1.97e+06 M⁻¹ s⁻¹.

B4: 3D8VH-G1m/hT4VL-KT0.Avi I253L.N315M (antibody, human IgG1, kappa)
heavy: EVQLVESGGGLVQPGGSLRLSCAASGYTFTSYVMHWVRQAPGKGLEWVSAINPYNDGNYYADSVKGRFTISRDNSRKTLYLQMNSLRAEDTAVYYCARGAYKRGYAMDYWGQGTTVTVSSASTKGPSVFPLAPSSKSTSGGTAALGCLVKDYFPEPVTVSWNSGALTSGVHTFPAVLQSSGLYSLSSVVTVPSSSLGTQTYICNVNHKPSNTKVDKKV[human IgG1 Fc with I253L N315M (EU numbers) omitted here]
light: [about 200 residues omitted here]GGGGSGLNDIFEAQKIEWHE
The molecule B4 gave a Kd of 0.409 nM, a koff of 0.000728 s⁻¹ and a kon of 1.78e+06 M⁻¹ s⁻¹.

B5: 3D8VH-G1m/hT4VL-KT0.Avi I253L.N315Q (antibody, human IgG1, kappa)
heavy: EVQLVESGGGLVQPGGSLRLSCAASGYTFTSYVMHWVRQAPGKGLEWVSAINPYNDGNYYADSVKGRFTISRDNSRKTLYLQMNSLRAEDTAVYYCARGAYKRGYAMDYWGQGTTVTVSSASTKGPSVFPLAPSSKSTSGGTAALGCLVKDYFPEPVTVSWNSGALTSGVHTFPAVLQSSGLYSLSSVVTVPSSSLGTQTYICNVNHKPSNTKVDKKV[human IgG1 Fc with I253L N315Q (EU numbers) omitted here]
light: [about 200 residues omitted here]GGGGSGLNDIFEAQKIEWHE
With B5, the dissociation constant (Kd) is 0.28 nM, the koff worked out at 0.000561 s⁻¹ and the kon was determined as 2e+06 M⁻¹ s⁻¹.

B6: 3D8VH-G1m/hT4VL-KT0.Avi I253L.M428F (antibody, human IgG1, kappa)
heavy: EVQLVESGGGLVQPGGSLRLSCAASGYTFTSYVMHWVRQAPGKGLEWVSAINPYNDGNYYADSVKGRFTISRDNSRKTLYLQMNSLRAEDTAVYYCARGAYKRGYAMDYWGQGTTVTVSSASTKGPSVFPLAPSSKSTSGGTAALGCLVKDYFPEPVTVSWNSGALTSGVHTFPAVLQSSGLYSLSSVVTVPSSSLGTQTYICNVNHKPSNTKVDKKV[human IgG1 Fc with I253L M428F (EU numbers) omitted here]
light: [about 200 residues omitted here]GGGGSGLNDIFEAQKIEWHE
As for B6, the affinity, expressed as Kd, was 0.303 nM; the koff turned out to be 0.000536 s⁻¹; the kon amounted to 1.77e+06 M⁻¹ s⁻¹.

B7: 3D8VH-G1m/hT4VL-KT0.Avi I253F.Y436T (antibody, human IgG1, kappa)
heavy: EVQLVESGGGLVQPGGSLRLSCAASGYTFTSYVMHWVRQAPGKGLEWVSAINPYNDGNYYADSVKGRFTISRDNSRKTLYLQMNSLRAEDTAVYYCARGAYKRGYAMDYWGQGTTVTVSSASTKGPSVFPLAPSSKSTSGGTAALGCLVKDYFPEPVTVSWNSGALTSGVHTFPAVLQSSGLYSLSSVVTVPSSSLGTQTYICNVNHKPSNTKVDKKV[human IgG1 Fc with I253F Y436T (EU numbers) omitted here]
light: [about 200 residues omitted here]GGGGSGLNDIFEAQKIEWHE
Molecule B7 had a Kd of 1.55 nM, a koff of 0.00227 s⁻¹ and a kon of 1.47e+06 M⁻¹ s⁻¹.

B8: 3D8VH-G1m/hT4VL-KT0.Avi I253M (antibody, human IgG1, kappa)
heavy: EVQLVESGGGLVQPGGSLRLSCAASGYTFTSYVMHWVRQAPGKGLEWVSAINPYNDGNYYADSVKGRFTISRDNSRKTLYLQMNSLRAEDTAVYYCARGAYKRGYAMDYWGQGTTVTVSSASTKGPSVFPLAPSSKSTSGGTAALGCLVKDYFPEPVTVSWNSGALTSGVHTFPAVLQSSGLYSLSSVVTVPSSSLGTQTYICNVNHKPSNTKVDKKV[human IgG1 Fc with I253M (EU numbers) omitted here]
light: [about 200 residues omitted here]GGGGSGLNDIFEAQKIEWHE
In turn, B8 showed an equilibrium dissociation constant (Kd) of 4.56 nM, a koff of 0.0122 s⁻¹ and a kon of 2.66e+06 M⁻¹ s⁻¹.

B9: 3D8VH-G1m/hT4VL-KT0.Avi I253L.Y436T (antibody, human IgG1, kappa)
heavy: EVQLVESGGGLVQPGGSLRLSCAASGYTFTSYVMHWVRQAPGKGLEWVSAINPYNDGNYYADSVKGRFTISRDNSRKTLYLQMNSLRAEDTAVYYCARGAYKRGYAMDYWGQGTTVTVSSASTKGPSVFPLAPSSKSTSGGTAALGCLVKDYFPEPVTVSWNSGALTSGVHTFPAVLQSSGLYSLSSVVTVPSSSLGTQTYICNVNHKPSNTKVDKKV[human IgG1 Fc with I253L Y436T (EU numbers) omitted here]
light: [about 200 residues omitted here]GGGGSGLNDIFEAQKIEWHE
As for B9, the Kd was 0.806 nM, the koff amounted to 0.000884 s⁻¹ and the kon worked out at 1.1e+06 M⁻¹ s⁻¹.

B10: 3D8VH-G1m/hT4VL-KT0.Avi I253F.N315M (antibody, human IgG1, kappa)
heavy: EVQLVESGGGLVQPGGSLRLSCAASGYTFTSYVMHWVRQAPGKGLEWVSAINPYNDGNYYADSVKGRFTISRDNSRKTLYLQMNSLRAEDTAVYYCARGAYKRGYAMDYWGQGTTVTVSSASTKGPSVFPLAPSSKSTSGGTAALGCLVKDYFPEPVTVSWNSGALTSGVHTFPAVLQSSGLYSLSSVVTVPSSSLGTQTYICNVNHKPSNTKVDKKV[human IgG1 Fc with I253F N315M (EU numbers) omitted here]
light: [about 200 residues omitted here]GGGGSGLNDIFEAQKIEWHE
B10 showed a dissociation constant Kd of 0.803 nM, a koff of 0.00174 s⁻¹ and a kon of 2.17e+06 M⁻¹ s⁻¹.

B11: 3D8VH-G1m/hT4VL-KT0.Avi I253L (antibody, human IgG1, kappa)
heavy: EVQLVESGGGLVQPGGSLRLSCAASGYTFTSYVMHWVRQAPGKGLEWVSAINPYNDGNYYADSVKGRFTISRDNSRKTLYLQMNSLRAEDTAVYYCARGAYKRGYAMDYWGQGTTVTVSSASTKGPSVFPLAPSSKSTSGGTAALGCLVKDYFPEPVTVSWNSGALTSGVHTFPAVLQSSGLYSLSSVVTVPSSSLGTQTYICNVNHKPSNTKVDKKV[human IgG1 Fc with I253L (EU numbers) omitted here]
light: [about 200 residues omitted here]GGGGSGLNDIFEAQKIEWHE
B11 showed a Kd of 0.834 nM, a koff of 0.00155 s⁻¹ and a kon of 1.86e+06 M⁻¹ s⁻¹.

B12: 3D8VH-G1m/hT4VL-KT0.Avi I253L.Q438E (antibody, human IgG1, kappa)
heavy: EVQLVESGGGLVQPGGSLRLSCAASGYTFTSYVMHWVRQAPGKGLEWVSAINPYNDGNYYADSVKGRFTISRDNSRKTLYLQMNSLRAEDTAVYYCARGAYKRGYAMDYWGQGTTVTVSSASTKGPSVFPLAPSSKSTSGGTAALGCLVKDYFPEPVTVSWNSGALTSGVHTFPAVLQSSGLYSLSSVVTVPSSSLGTQTYICNVNHKPSNTKVDKKV[human IgG1 Fc with I253L Q438E (EU numbers) omitted here]
light: [about 200 residues omitted here]GGGGSGLNDIFEAQKIEWHE
In turn, B12 showed a Kd of 0.245 nM, a koff of 0.000618 s⁻¹ and an on-rate constant (kon) of 2.52e+06 M⁻¹ s⁻¹.

Source of the values: patent US20210238308A1 (Chugai, published 2021).
